Measurements from PubChem BioAssay AID540317 (National Center for Advancing Translational Sciences (NCATS), 2011).
In all, about 390,000 compounds went through this assay and about 2,200 (0.56%) were called active. This list was built around the results that the source calls inconclusive (neither active nor inactive); the mix of calls is not that of the screen. The call rests on the fitted dose curve; in most records, active means well fitted inhibition curve with a large enough effect; inconclusive means small, poorly fitted or top-dose-only effect; inactive means no such curve, though single readings can be large or run the other way. Potencies of inconclusive entries are doubtful fits and often do not repeat.

target: Chromobox protein homolog 1 (Homo sapiens) (UniProt P83916); assay: HTS for Inhibitors of HP1-beta Chromodomain Interactions with Methylated Histone Tails; settings: AlphaScreen HP1-beta / biotin-H3K9me3 peptide binding; series mostly up to 114 µM; activity change, negative = inhibition: at the top concentration; further: nearly all actives have a fitted effect of over 70% in size
Outline: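 HP1-beta protein (50 nM final) preincubated 30 min at room temperature with biotinylated H3(1-18)K9me3 peptide (50 nM) in PBS pH 7.4, 0.01% Tween-20, then compound added for 30 min. AlphaScreen streptavidin donor/nickel chelate acceptor beads (10 ug/mL final), 30 min dark, luminescence read.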
Potency means the concentration at half of the fitted maximal effect; tags describe the fitted curve by direction and shape.

Sequence of UniProt P83916 (P83916 whole entry, looked up): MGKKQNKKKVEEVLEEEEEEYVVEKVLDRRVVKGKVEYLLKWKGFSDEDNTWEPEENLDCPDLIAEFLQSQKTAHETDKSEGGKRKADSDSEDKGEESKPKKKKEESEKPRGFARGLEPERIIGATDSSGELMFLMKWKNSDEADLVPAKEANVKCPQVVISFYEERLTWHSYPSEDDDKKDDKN

SMILES | Potency | activity change, negative = inhibition
CCOC(=O)CSc1n[nH]c(=S)s1 | inconclusive: 70.8 µM [inhibitor, partial curve] | –
COc1ccc(CCNC(=O)CSc2nnc(-c3ccc(F)cc3)c3ccccc23)cc1OC | inconclusive: 39.8 µM [inhibitor, single point] | –
CNC(=O)Nc1cc(C(C)(C)C)no1 | inconclusive: 12.6 µM [inhibitor, partial curve] | –
Cc1ccc(/C=C/C(=O)NCCc2ccccc2)o1 | inconclusive: 20 µM [inhibitor, full curve] | –
CC(=O)NN1C(=O)/C(=C/c2ccc(C(C)C)cc2)SC1=S | inconclusive: 25.1 µM [inhibitor, single point] | –
Cn1c(CNC(=O)c2ccc(F)cc2)nc2ccccc21 | inconclusive: 39.8 µM [inhibitor, single point] | –
CCCN(C(=O)CSc1n[nH]c(-c2ccc(OC)cc2)n1)c1c(N)n(Cc2ccccc2)c(=O)[nH]c1=O | – | inactive: 22%
CCCCOc1cc(NCc2ccccc2)c2ncn(C(C)C)c2c1 | inconclusive: 50.1 µM [inhibitor, partial curve] | –
CCCC(C)NC(=O)/C=C/c1cccc([N+](=O)[O-])c1 (stereo unspecified) | – | inactive: 11.2%
O=c1cc(O)c2c(=O)n(C3CCCCC3)c3ccccc3c2o1 | – | inactive: 30%
O=C(Nc1ccc2c(c1)OCO2)c1ccc(N2CCCC2)c([N+](=O)[O-])c1 | inconclusive: 31.6 µM [inhibitor, single point] | –
CCC(=O)Nc1cc(-c2cccc(C)c2)nn1-c1ccccc1 | – | inactive: 15% [at 57 µM]
O=[N+]([O-])c1ccc(CNc2ccc(Cl)cc2)s1 | inconclusive: 79.4 µM [inhibitor, partial curve] | –
C/C(=C\C=C(C#N)C#N)c1cc(C#N)c(N)o1 | inconclusive: 15.8 µM [inhibitor, full curve] | –
O=C(CSc1nnnn1-c1cccc2c1CCCC2)N1CCCC1 | inconclusive: 6.31 µM [inhibitor, single point] | –
O=[N+]([O-])c1cc(Br)c2nsnc2c1N1CCOCC1 | active: 20 µM | –
COc1ccc(NC(=O)COC(=O)CC23CC4CC(CC(C4)C2)C3)c([N+](=O)[O-])c1 | inconclusive: 20 µM [inhibitor, full curve] | –
CN1CCN(C(=O)C2CCCN(S(=O)(=O)c3ccc(Cl)cc3)C2)CC1 (stereo unspecified) | inconclusive: 25.1 µM [inhibitor, full curve] | –
CCOC(=O)c1ccc(NC(=O)Nc2cccc(OCc3cc(=O)n4ccc(C)cc4n3)c2)cc1 | – | inactive: 17.4% [at 57 µM]
O=C(N/N=C\c1ccc(Br)o1)C1COc2ccccc2O1 (stereo unspecified) | inconclusive: 44.7 µM [inhibitor, partial curve] | –
CCCCn1c(N)c(N(CC(C)C)C(=O)c2cnccn2)c(=O)[nH]c1=O | – | inactive: 47.4%
COc1ccc(C(=O)Nc2ccc3nc(N4CCN(C)CC4)cc(C)c3c2)c(OC)c1 | inconclusive: 79.4 µM [inhibitor, single point] | –
O=C(CN1C(=O)NC2(CCCCCC2)C1=O)c1ccc(Cl)cc1 | – | inactive: 55.7%
CCn1c(O)c(C2=NCCCC2)c2ccccc21 | inconclusive: 22.4 µM [inhibitor, partial curve, poor fit] | –

SMILES | Potency | activity change, negative = inhibition
CCCOc1ccc(C(=O)Nc2cc3nn(-c4ccc(CC)cc4)nc3cc2C)cc1 | – | inactive: 21.7%
CCC(C)N1CCCCC1C(=O)Nc1c(C)cc(C)cc1C (stereo unspecified) | – | inactive: 24.5%
COC(=O)COc1ccc(S(=O)(=O)NCc2ccc3c(c2)OCO3)cc1C | inconclusive: 25.1 µM [inhibitor, single point] | –
Cc1nc2c(C#N)c[nH]n2c(=O)c1CCO | – | inactive: 5.35%
CC(=O)N1CCc2cc(S(=O)(=O)C(C)CC(=O)NCc3ccc(C)o3)ccc21 (stereo unspecified) | – | inactive: 33.5%
O=S(=O)(Nc1nnc(C(F)(F)F)s1)c1ccc(Cl)cc1 | – | inactive: 9.43%
OCCn1c(-c2ccc(F)cc2)csc1=Nc1ccccc1 | inconclusive: 25.1 µM [inhibitor, full curve, poor fit] | –
CN(C)CCCN1c2ccccc2Sc2ccc(Cl)cc21 | inconclusive: 17.8 µM [inhibitor, full curve] | –
Nc1nc(NCCc2ccccc2)nc(NCc2ccccc2)c1[N+](=O)[O-] | inconclusive: 22.4 µM [inhibitor, partial curve, poor fit] | –
Cc1cccc(N=N/C(=C\O)C(=O)c2cccs2)c1 | inconclusive: 35.5 µM [inhibitor, partial curve] | –
CC(=O)c1ccc(NC(=O)C(Cc2ccccc2)NS(=O)(=O)c2ccc3c(c2)CCC(=O)N3)cc1 (stereo unspecified) | – | inactive: 13.3%
COc1cc(C)c(CNC2CCCCC2)cc1C | inconclusive: 79.4 µM [inhibitor, single point] | –
Cn1cnnc1SCC(=O)Nc1ccc2nc(SCc3cccc4ccccc34)sc2c1 | inconclusive: 89.1 µM [inhibitor, single point] | –
O=c1[nH]c2ccccc2n2c(-c3ccccc3)nnc12 | active: 5.62 µM | –
Cc1cc(OCCCN2CCN(Cc3ccccc3)CC2)ccc1[N+](=O)[O-] | inconclusive: 14.1 µM [inhibitor, partial curve, poor fit] | –
O=C(CCc1c[nH]c2ccccc12)N1CCN(c2ccc(O)cc2)CC1 | inconclusive: 25.1 µM [inhibitor, full curve] | –
CN(C)Cc1cc(O)c(CN(C)C)cc1O | inconclusive: 2.82 µM [inhibitor, full curve, poor fit] | –
O=C(CCCn1cnc([N+](=O)[O-])n1)Nc1ccc(Cl)c(Cl)c1 | inconclusive: 89.1 µM [inhibitor, single point] | –
O=C1CCc2cc(S(=O)(=O)NC(C(=O)Nc3ccc(F)cc3)c3ccccc3)ccc2N1 (stereo unspecified) | inconclusive: 89.1 µM [inhibitor, single point] | –
CCOc1ccc(NC(=O)C2CCCN(C)C2)cc1 (stereo unspecified) | – | inactive: 38.2%
COCCNC(=S)N/N=C(\C)c1ccccc1F | inconclusive: 79.4 µM [inhibitor, partial curve, poor fit] | –
C=CCn1c(N)c(C(=O)NCCC2=CCCCC2)sc1=S | inconclusive: 22.4 µM [inhibitor, single point] | –
Cc1cccc(N2CCN(CC(=O)NCC3CCCCC3)CC2)c1C | inconclusive: 22.4 µM [inhibitor, full curve, poor fit] | –
COc1ccccc1Nc1nc(-c2c(C)nc3ncccn23)cs1 | inconclusive: 44.7 µM [inhibitor, partial curve] | –

SMILES | Potency | activity change, negative = inhibition
Nc1nc(=S)n(-c2ccccc2)[nH]1 | inconclusive: 89.1 µM [inhibitor, single point] | –
C=CCc1ccc(OCCOCCN(C)C)c(OC)c1 | inconclusive: 1.41 µM [inhibitor, full curve] | –
NC(=NCCc1ccccc1)NS(=O)(=O)c1ccc(F)cc1 | inconclusive: 31.6 µM [inhibitor, single point] | –
O=C1CC(c2ccc(O)c(O)c2)Oc2c1ccc(O)c2O (stereo unspecified) | inconclusive: 11.2 µM [inhibitor, full curve, poor fit] | –
CC(C)CC(=O)N1CCN(Cc2ccc(C(F)(F)F)cc2)CC1 | inconclusive: 15.8 µM [inhibitor, full curve] | –
CCOc1ccc(NC(=O)N(CCN2CCOCC2)Cc2ccc3c(c2)CCCN3CC)cc1 | inconclusive: 50.1 µM [inhibitor, partial curve] | –
C=CCn1c(SCC(=O)Nc2ccc(C(=O)O)cc2)nc2scc(-c3ccccc3)c2c1=O | inconclusive: 70.8 µM [inhibitor, partial curve] | –
C[C@@H]1Cc2c(O)c(O)cc(O)c2C(=O)O1 | inconclusive: 50.1 µM [inhibitor, partial curve, poor fit] | –
CC(C)C(NS(=O)(=O)c1ccc2c(c1)OCCCO2)C(=O)O (stereo unspecified) | inconclusive: 39.8 µM [inhibitor, single point] | –
CC1(C)Nc2ccc(O)cc2-c2c1ssc2=S | active: 50.1 µM | –
Cn1c(=O)c2c(nc(SCC(=O)Nc3ccc(OC(F)(F)F)cc3)n2Cc2cccc(C(F)(F)F)c2)n(C)c1=O | – | inactive: 7.68%
Cc1ccc(CN2CCN(/N=C/c3cccs3)CC2)cc1 | inconclusive: 14.1 µM [inhibitor, full curve] | –
COc1ccc(N2CCN(c3nc4ccccc4n3CC(=O)c3ccccc3)CC2)cc1 | inconclusive: 15.8 µM [inhibitor, full curve] | –
O=C(NNC(=O)c1nc2ccccc2[nH]1)OCc1ccccc1 | – | inactive: 72.8%
Cc1cc(NC(=O)N2CC=C(c3c[nH]c4ccccc34)CC2)ccc1Br | – | inactive: -14.3%
COc1ccc(-n2nc(C(=O)N3CCC(C)CC3)c3c4ccccc4n(C)c3c2=O)cc1Cl | – | inactive: 24.9%
CCc1ccc(N=c2c([N+](=O)[O-])nn(-c3ccc4c(c3)OCCO4)n2O)cc1 | inconclusive: 44.7 µM [inhibitor, partial curve] | –
CC(C)(C)c1ccc(OCCCNCc2ccccc2)cc1 | inconclusive: 56.2 µM [inhibitor, single point] | –
COc1cccc(-c2nc(SCC(=O)Nc3ccc4c(c3)OCO4)c(-c3ccccc3)[nH]2)c1 | inconclusive: 25.1 µM [inhibitor, partial curve, poor fit] | –
CN(C)S(=O)(=O)N(CC(=O)NCCSCc1ccccc1Cl)c1ccccc1 | – | inactive: 0.126%
O=C(Cc1ccc(Br)cc1)N1CCN(c2ccccn2)CC1 | inconclusive: 39.8 µM [inhibitor, single point] | –
COc1cccc(/C=N/n2c(-c3n[nH]c4c3CCC4)n[nH]c2=S)c1O | inconclusive: 50.1 µM [inhibitor, partial curve, poor fit] | –
CCSC(=O)N=Nc1ccc(O)cc1 | inconclusive: 20 µM [inhibitor, full curve, poor fit] | –
